Source: publication PMC7819943, “Rice protein-binding microarrays: a tool to detect cis-acting elements near promoter regions in rice”
The list shows a part of the results.

biological target: T1, OsWOX13 (Oryza sativa, UniProt Q5QMM3 1-267); assay: protein-binding microarray (RPBM); PBS, 2% BSA, 51.3 ng/ul salmon testes DNA, 50 uM zinc acetate, 200 nM TF, 25 C, 1 h; high values mean tight binding; conditions: protein: recombinant; tags: N-terminal polyhistidine and DsRed monomer fusion (pET32a); label: CyDye5-dUTP incorporated in the synthesized complementary strand; 3' TTTTT single-stranded linker to array surface; dsDNA, one strand shown
T1 sequence: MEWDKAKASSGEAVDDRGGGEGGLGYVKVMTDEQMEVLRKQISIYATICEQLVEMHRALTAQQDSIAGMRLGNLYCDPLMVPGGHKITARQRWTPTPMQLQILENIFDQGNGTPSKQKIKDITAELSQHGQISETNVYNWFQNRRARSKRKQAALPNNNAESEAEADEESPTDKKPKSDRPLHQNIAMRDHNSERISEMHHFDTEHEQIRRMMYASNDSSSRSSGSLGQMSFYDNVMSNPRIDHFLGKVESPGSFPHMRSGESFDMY
Procedure, shortened: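 A custom Agilent array was converted to double-stranded form by primer extension with Cy5-dUTP and blocked with 2% BSA. Protein at 200 nM in PBS with 2% BSA, salmon testes DNA and 50 µM zinc acetate was applied for 1 h at 25 °C, followed by washing. The proteins were polyhistidine–DsRed N-terminal fusions of transcription factors, expressed in E. coli BL21-CodonPlus and Ni–NTA-purified. The binding signal is per-feature fluorescence intensity (arbitrary units) from an Axon 4000B scanner.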

Sequence | binding signal
AGGCAGTATTCAATCTTGATTATGGGCAGCTGAAACTCGTCGGAGTCACCTAGTGCAG | 4640 fluorescence intensity (a.u.)
ACTTAAAATAGATAGAATTTGAATTGATGTCATATTTAGACGGAGTCACCTAGTGCAG | 8600 fluorescence intensity (a.u.)
ATAATTAGTCGTGTGCATCACCGTCATCTGGTATCTCTTGCGGAGTCACCTAGTGCAG | 3180 fluorescence intensity (a.u.)
TTACTAATTTAGTTTAAACAGGTACAATTAATTACTCGCGCGGAGTCACCTAGTGCAG | 45300 fluorescence intensity (a.u.)
AGCTAATTATGGCCAAGGCCTACTTGCAGTTTGCTTCCCTCGGAGTCACCTAGTGCAG | 25600 fluorescence intensity (a.u.)
TATCTAAACAAAATTAACAGGAACACCATATAACAGATTACGGAGTCACCTAGTGCAG | 3670 fluorescence intensity (a.u.)
CTTTTGATTGTTCGTTTTGCTATGATTTTGTTCAAGTTAACGGAGTCACCTAGTGCAG | 22800 fluorescence intensity (a.u.)
CCTCGTCTAGATTGAAACAGAGATAATTAGGCAACGTGAACGGAGTCACCTAGTGCAG | 18400 fluorescence intensity (a.u.)
AGTACATAATTTATTTTCATTTTACATCATATACTATGTACGGAGTCACCTAGTGCAG | 7120 fluorescence intensity (a.u.)
CAACTACTCATTCCAAATTATCTATAACCAATCTAACAGCCGGAGTCACCTAGTGCAG | 4140 fluorescence intensity (a.u.)
TTATTAATTTCTAGTATTAGTTTGTGTTGTCTAGACATTTCGGAGTCACCTAGTGCAG | 4720 fluorescence intensity (a.u.)
ACTAAACAGGGCCTAATTAAGCTGTGTATAGTAAGCACAACGGAGTCACCTAGTGCAG | 20800 fluorescence intensity (a.u.)
AGTTCAACTGCGATAATTGAGCTGCTCATGCTATTTGTTCCGGAGTCACCTAGTGCAG | 4870 fluorescence intensity (a.u.)
TTATAAACAGATGAAGTACCGCATATAACTTATTGCCTTGCGGAGTCACCTAGTGCAG | 6130 fluorescence intensity (a.u.)
CTTTAATTTGGTAAGCTTAATTATGTTACCCGGTTACCCCCGGAGTCACCTAGTGCAG | 45800 fluorescence intensity (a.u.)
ATTAATTGATCCTCCTTAGAAGATGAACTCAGACTTCAAACGGAGTCACCTAGTGCAG | 5530 fluorescence intensity (a.u.)
GGTGAATGAGGTTATTATAATTACCAGAACCACGGGGAAGCGGAGTCACCTAGTGCAG | 6480 fluorescence intensity (a.u.)
CTAATCATGGACTAATTAGGCACAAAAGATTCGTCTCGCACGGAGTCACCTAGTGCAG | 18400 fluorescence intensity (a.u.)
AAAATCTAAGTAATTATTAATTCTTTTCCTATCATTTGATCGGAGTCACCTAGTGCAG | 6010 fluorescence intensity (a.u.)
TTGATTTACCTCTCTACTTTAATTTAATTTAGAATACTAACGGAGTCACCTAGTGCAG | 4270 fluorescence intensity (a.u.)
TTCATGAAATGATCCTGACAGATCATACACGATTGTACATCGGAGTCACCTAGTGCAG | 3750 fluorescence intensity (a.u.)

Sequence | binding signal
GTTTGGATTGAAGCCAATTCTTGCCCTATCAATTATTTGGCGGAGTCACCTAGTGCAG | 16500 fluorescence intensity (a.u.)
ACTATCTTAATTAGTGGTAGTCACTGGTGCCCAGGCGACGCGGAGTCACCTAGTGCAG | 18200 fluorescence intensity (a.u.)
TCAAAATCTAACTTTCTAGTTAATTTCGTGAGATAGCTCTCGGAGTCACCTAGTGCAG | 4150 fluorescence intensity (a.u.)
ATAACCACAATAGTTATGACTGTACTACTTACTCTTTATACGGAGTCACCTAGTGCAG | 14300 fluorescence intensity (a.u.)
AAACAATTACTCCCTTTATTAGGTTTAAATAAGTCACAAGCGGAGTCACCTAGTGCAG | 3660 fluorescence intensity (a.u.)
CTACTGAGCATAATTAATTTATAATTAGCATATGTGATAACGGAGTCACCTAGTGCAG | 28500 fluorescence intensity (a.u.)
TATGCACCAAAAGTCACATCAACTATAGCCTAGATTCATACGGAGTCACCTAGTGCAG | 16100 fluorescence intensity (a.u.)
CAAACCGATTGAGGGGCGTGATTTGAACTCGACGCTTATTCGGAGTCACCTAGTGCAG | 10700 fluorescence intensity (a.u.)
TTATTTAATTAGTATATACATTTAGGTTTGCTTGATAAGACGGAGTCACCTAGTGCAG | 11600 fluorescence intensity (a.u.)
TAACATTTATCTAAATAAATAAATTTGTAGTGGCACGGATCGGAGTCACCTAGTGCAG | 3820 fluorescence intensity (a.u.)
CCGCTGTAGCTGATTGCCAGTGTCAGATCAAGCTGTGAATCGGAGTCACCTAGTGCAG | 9800 fluorescence intensity (a.u.)
ATGGTGTATAAATTAATCACACATTAAAATTGTCCCGTGACGGAGTCACCTAGTGCAG | 9920 fluorescence intensity (a.u.)
TTAATTAATTTTAAATAATATGCATAAAACGAGGGGATATCGGAGTCACCTAGTGCAG | 15600 fluorescence intensity (a.u.)
AATAATTTACCTTGTTCTACCGTAGCAAATAAAGACTCAACGGAGTCACCTAGTGCAG | 4290 fluorescence intensity (a.u.)
CTTTTAACTTGAAATTTAAATTTGTAAGACAAAATTTAAACGGAGTCACCTAGTGCAG | 3690 fluorescence intensity (a.u.)
TAACTTTTCAATCACATCAAAACTTTTCTACACACGTAAACGGAGTCACCTAGTGCAG | 9800 fluorescence intensity (a.u.)
TTGCACATTGATTGTCTCCAATTTTGGTGAGTTTTCGGCACGGAGTCACCTAGTGCAG | 28800 fluorescence intensity (a.u.)
TTTAATTAGTTCGTTATCGGTTCCCTACAAACCGCAAACGCGGAGTCACCTAGTGCAG | 26600 fluorescence intensity (a.u.)
TGAGTAAATGTGTTGTTGTTAATTGCTATATGTACAGTTGCGGAGTCACCTAGTGCAG | 5280 fluorescence intensity (a.u.)
TCGTTGTAATTAAATCTTTACAACAAGATATCATATGATTCGGAGTCACCTAGTGCAG | 8340 fluorescence intensity (a.u.)
TCCTTTTAACAGCGCATTTGTCTATTGAGAAAATTGATTCCGGAGTCACCTAGTGCAG | 4650 fluorescence intensity (a.u.)

Sequence | binding signal
AGACTGAATGGCAACTGACAACTTTCTTGTATAAATCACACGGAGTCACCTAGTGCAG | 7690 fluorescence intensity (a.u.)
TTGTTGACAAGCATCATGATTAGTACAACCATGTGTCTATCGGAGTCACCTAGTGCAG | 25800 fluorescence intensity (a.u.)
ACTTGACTCATTAATAGCAAACAACAGTATTACATACGTACGGAGTCACCTAGTGCAG | 4070 fluorescence intensity (a.u.)
CCTAGATTGGTGTAGTAGGTCAGGCTTGGTAGCACATGCGCGGAGTCACCTAGTGCAG | 16400 fluorescence intensity (a.u.)
GGGAATTTGTATTTAAATTTTGGTTTATAAAATTTATTCGCGGAGTCACCTAGTGCAG | 9720 fluorescence intensity (a.u.)
ATAATTGCTTGTAGTTGAAGCCAGTGAGGAAAATGTTGCTCGGAGTCACCTAGTGCAG | 9690 fluorescence intensity (a.u.)
GGGTAATCATTACCCATTCCCATATCCATACCCACATTATCGGAGTCACCTAGTGCAG | 6150 fluorescence intensity (a.u.)
TCATTAATTTTATTAATAGACCATTTCTAAAAGTATTTCACGGAGTCACCTAGTGCAG | 11000 fluorescence intensity (a.u.)
TGCCTAGATGTGTTGATTATTTTCTGTATGTAGAAAGGAACGGAGTCACCTAGTGCAG | 6040 fluorescence intensity (a.u.)
TTAAAATTGATTTTAGGGGATTTTCATCTGAGCTTATGTTCGGAGTCACCTAGTGCAG | 55800 fluorescence intensity (a.u.)
TTAGATAGATATATATGTATAGATTCATTAACAACAATATCGGAGTCACCTAGTGCAG | 7550 fluorescence intensity (a.u.)
ATCTAGCTCAATTGGCTAATTACGTGCCCAACTCAACTGCCGGAGTCACCTAGTGCAG | 7920 fluorescence intensity (a.u.)
CGGTCGTGGAATTGGCACTAATTAATAACCTGAGGTCATCCGGAGTCACCTAGTGCAG | 5590 fluorescence intensity (a.u.)
AGCGCGTACAAAATCGGAGCTGATTGCCTGACTATCTCTGCGGAGTCACCTAGTGCAG | 4000 fluorescence intensity (a.u.)
CATTAATGTTCTTTGTCTAATTATTGACTAGAGGAATATGCGGAGTCACCTAGTGCAG | 10100 fluorescence intensity (a.u.)
TGAGAAAGCTAATTGAGATCGCTAGCTAACTAATGACCATCGGAGTCACCTAGTGCAG | 8160 fluorescence intensity (a.u.)
TACTAAACATAACTGGTTTTCCTCAACTTCACATACCCCACGGAGTCACCTAGTGCAG | 4360 fluorescence intensity (a.u.)
CTAGCTAGATAGATAGTAGATAGATCCTCACGAGTGGTTTCGGAGTCACCTAGTGCAG | 4760 fluorescence intensity (a.u.)
GTTTAGACAATGTGCTAATTGTCCTGTATAGCTGTAAGTACGGAGTCACCTAGTGCAG | 11300 fluorescence intensity (a.u.)
AACATATATTTTAATTGATGGGCTGGTAGCATTTTGTTTTCGGAGTCACCTAGTGCAG | 21800 fluorescence intensity (a.u.)
TATATATATATATATATATTGTTGAACGGTTTGTGCTCTGCGGAGTCACCTAGTGCAG | 13000 fluorescence intensity (a.u.)

Sequence | binding signal
GACCACAATTAATTACCACTGCTAAGCTCCATCCTCCATGCGGAGTCACCTAGTGCAG | 14500 fluorescence intensity (a.u.)
AGCAAATTGTTTGGTGGAACTAAAGTAAACTCGATCTCTTCGGAGTCACCTAGTGCAG | 5410 fluorescence intensity (a.u.)
ATCAATTTTAGGTGATTGAGAAAGACTTGCCGGATTTGATCGGAGTCACCTAGTGCAG | 43100 fluorescence intensity (a.u.)
GCTGACTGACTGACTGACTCCTGACCGCCTTTAACTTTTACGGAGTCACCTAGTGCAG | 3880 fluorescence intensity (a.u.)
TGGTTTTGATTGATCGATATTGCTTTTGTTTACCATTGCCCGGAGTCACCTAGTGCAG | 49800 fluorescence intensity (a.u.)
GTAATTGGCAGGTGTACGTTCGTGTTCATATAGAATAGAGCGGAGTCACCTAGTGCAG | 10200 fluorescence intensity (a.u.)
ACGAGGATGACTGGCTGACTGGTACTTTGCATCGGATCATCGGAGTCACCTAGTGCAG | 10200 fluorescence intensity (a.u.)
GGCCTTACCTGCTACTAATTAACACCCAGACCGGCCCATGCGGAGTCACCTAGTGCAG | 3370 fluorescence intensity (a.u.)
ACATAATCATTGGTTGAGTCCTAGGCTAAGATAATTTCGACGGAGTCACCTAGTGCAG | 7330 fluorescence intensity (a.u.)
CCTTTGTTATGATTATTACTAGTACGCGTCATGACAGAAGCGGAGTCACCTAGTGCAG | 4270 fluorescence intensity (a.u.)
TATTTAAATTAGAAATTCAATTAAAATTCTCCTCCCTTGTCGGAGTCACCTAGTGCAG | 20700 fluorescence intensity (a.u.)
GATGAGTGGTGATTGGTGAAGATATCTGGTGGTTTTGGGACGGAGTCACCTAGTGCAG | 32400 fluorescence intensity (a.u.)
GGGTATAGATTGGTATAACAACTTGCGAATCGTTTAATCCCGGAGTCACCTAGTGCAG | 24300 fluorescence intensity (a.u.)
GTCAAATCATTATCATTATTCACTCAAACAGATGTCCTTACGGAGTCACCTAGTGCAG | 9530 fluorescence intensity (a.u.)
TCTAAATTTTGATCATCAGTATCCAACTTTGATTGTTATCCGGAGTCACCTAGTGCAG | 21200 fluorescence intensity (a.u.)
CGGCCCGTCAATCTGTTCTCTCAATCCAGAAAGAATAATACGGAGTCACCTAGTGCAG | 3360 fluorescence intensity (a.u.)
CTTAATAGTCTCTGACAAAGCAATAAAATCAAGGTGATGTCGGAGTCACCTAGTGCAG | 6020 fluorescence intensity (a.u.)
ATAAATAGAATGCTGACTGGACTGCCACGCGTACGCCATGCGGAGTCACCTAGTGCAG | 29000 fluorescence intensity (a.u.)
TATAGTTGATTTACAGTTTTAGGATACGTCATATTCAACACGGAGTCACCTAGTGCAG | 25900 fluorescence intensity (a.u.)
ATCAAACTTTTATTACATTCAAATACAAATAGTTTGCTGACGGAGTCACCTAGTGCAG | 3960 fluorescence intensity (a.u.)
CTAATTAATACATGATTAGCCTATGTGAGGTTACAGTAAACGGAGTCACCTAGTGCAG | 33900 fluorescence intensity (a.u.)
